In all, about 310,000 compounds went through this assay and about 2,200 (0.71%) showed an effect of 50% or more. The effect is printed as a negative number. This is one part of the list.
What follows are compounds tested against human ether-à-go-go-related gene (hERG) potassium channel (human, UniProt Q12809) (assay: primary screen, population patch clamp on CHO cells stably expressing hERG).
Chain of human ether-à-go-go-related gene (hERG) potassium channel (Q12809 whole entry, looked up): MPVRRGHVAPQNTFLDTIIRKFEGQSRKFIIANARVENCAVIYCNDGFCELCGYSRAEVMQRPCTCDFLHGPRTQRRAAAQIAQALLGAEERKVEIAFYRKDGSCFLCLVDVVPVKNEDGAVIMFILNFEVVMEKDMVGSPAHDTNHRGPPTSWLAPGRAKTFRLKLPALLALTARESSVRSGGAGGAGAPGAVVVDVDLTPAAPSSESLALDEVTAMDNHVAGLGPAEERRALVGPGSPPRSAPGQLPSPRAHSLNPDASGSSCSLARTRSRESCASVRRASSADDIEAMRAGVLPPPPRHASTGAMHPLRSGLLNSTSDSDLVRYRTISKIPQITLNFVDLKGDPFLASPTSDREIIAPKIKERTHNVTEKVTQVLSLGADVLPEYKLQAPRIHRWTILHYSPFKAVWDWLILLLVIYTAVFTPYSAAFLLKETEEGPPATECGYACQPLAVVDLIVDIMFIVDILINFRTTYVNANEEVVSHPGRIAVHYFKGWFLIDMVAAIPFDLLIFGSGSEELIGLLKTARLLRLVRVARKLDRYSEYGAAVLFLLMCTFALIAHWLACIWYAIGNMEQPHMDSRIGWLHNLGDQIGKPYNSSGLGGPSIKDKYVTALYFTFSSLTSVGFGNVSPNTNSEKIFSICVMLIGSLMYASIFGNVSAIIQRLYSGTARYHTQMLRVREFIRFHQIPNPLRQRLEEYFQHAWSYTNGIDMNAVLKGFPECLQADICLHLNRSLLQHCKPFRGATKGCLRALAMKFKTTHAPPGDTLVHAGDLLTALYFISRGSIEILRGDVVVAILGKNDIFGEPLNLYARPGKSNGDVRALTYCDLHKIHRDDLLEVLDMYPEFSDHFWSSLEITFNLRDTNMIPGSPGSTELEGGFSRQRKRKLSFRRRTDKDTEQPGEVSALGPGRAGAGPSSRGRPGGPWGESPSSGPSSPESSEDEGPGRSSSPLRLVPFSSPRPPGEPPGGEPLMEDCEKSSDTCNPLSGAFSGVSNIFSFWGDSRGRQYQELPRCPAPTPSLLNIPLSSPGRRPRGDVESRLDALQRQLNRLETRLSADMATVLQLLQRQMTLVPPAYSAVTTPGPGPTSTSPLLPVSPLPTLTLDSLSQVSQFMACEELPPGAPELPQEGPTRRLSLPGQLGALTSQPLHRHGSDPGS
For O=C(O)C1CSC(CCc2ccccc2)N1 (stereo not shown), the “hERG current change (%, negative = inhibition) at 1uM” value was 7.43%.
For O=C(NC(=S)Nc1ccccc1N1CCOCC1)c1ccc([N+](=O)[O-])cc1, the “hERG current change (%, negative = inhibition) at 1uM” value was 10.6%.
CCCN1C(=O)/C(=N\OCC(=O)NC23CC4CC(CC(C4)C2)C3)c2ccccc21 was tested, and the “hERG current change (%, negative = inhibition) at 1uM” value was -0.568%.
For COc1ccc(NC(=O)CC(C)NCCCN2CCCC2=O)cc1.O=C(O)C(=O)O (stereo not shown), the “hERG current change (%, negative = inhibition) at 1uM” value was 10.9%.
With N#C/C(=C\N1CCOCC1)C(N)=O the “hERG current change (%, negative = inhibition) at 1uM” value was 17.1%.
With COC(=O)C(O)(c1ccc(NC(=O)Oc2ccccc2)cc1)C(F)(F)F (stereo not shown) the “hERG current change (%, negative = inhibition) at 1uM” value was -6.21%.
With Cc1ccc(NC(=O)COC(=O)c2cccnc2)cc1 the “hERG current change (%, negative = inhibition) at 1uM” value was 6.72%.
With CC(C)Sc1nc2c(c(=O)[nH]c(=O)n2C)n1Cc1ccc(Cl)cc1 the “hERG current change (%, negative = inhibition) at 1uM” value was 4.3%.
For CC1CCN(C(=O)C2c3ccccc3C(=O)N3CCc4ccccc4C23)CC1 (stereo not shown), the “hERG current change (%, negative = inhibition) at 1uM” value was 18.5%.
In the case of COc1cc(NC(=O)c2ccc(Cl)cc2)c(OC)cc1Cl, the “hERG current change (%, negative = inhibition) at 1uM” value is reported as 2.91%.
COc1ccc(Cc2c(N)nc(C)nc2N)cc1 was tested, and the “hERG current change (%, negative = inhibition) at 1uM” value was 18.7%.
CC(=O)NS(=O)(=O)c1ccc(NC(=O)c2oc3c(Cl)cccc3c2C)cc1 was tested, and the “hERG current change (%, negative = inhibition) at 1uM” value was 11.8%.
O=C(c1ccco1)n1nc(-c2ccco2)nc1SCc1ccccc1 was tested, and the “hERG current change (%, negative = inhibition) at 1uM” value was 14%.
With Cc1cc(NS(=O)(=O)c2ccc(NC(=O)C(C)Oc3ccccc3Cl)cc2)no1 (stereo not shown) the “hERG current change (%, negative = inhibition) at 1uM” value was 1.96%.
Cc1ccc(NC(=O)Nc2ccc(F)cc2F)c(OC(F)F)c1 was tested, and the “hERG current change (%, negative = inhibition) at 1uM” value was 15.3%.
For O=C(NCc1ccc(Cl)cc1)C1CCN(S(=O)(=O)c2cccs2)CC1, the “hERG current change (%, negative = inhibition) at 1uM” value was 6.96%.
CCOC(=O)Nc1ccc(C)cc1Br was tested, and the “hERG current change (%, negative = inhibition) at 1uM” value was -7.49%.
For COc1ccc(-n2c(O)c(/C=C/C=Nc3ccccc3)c(=O)[nH]c2=O)cc1, the “hERG current change (%, negative = inhibition) at 1uM” value was 13.8%.
For Cl.O=C(NCCCn1ccnc1)c1cc(Cl)cc(Cl)c1, the “hERG current change (%, negative = inhibition) at 1uM” value was 4.65%.
In the case of Nc1nc(N)c2ncc(C(=O)CCc3ccccc3)nc2n1, the “hERG current change (%, negative = inhibition) at 1uM” value is reported as 7.42%.
With c1ccc2[nH]c(CN3CCOCC3)nc2c1 the “hERG current change (%, negative = inhibition) at 1uM” value was 14%.
NC(N)=NS(=O)(=O)c1ccc(NC(=S)NC(=O)c2ccc3c(c2)OCO3)cc1 was tested, and the “hERG current change (%, negative = inhibition) at 1uM” value was 10.5%.
For Brc1ccc(OCc2nc(-c3ccccn3)n[nH]2)cc1, the “hERG current change (%, negative = inhibition) at 1uM” value was 4.48%.
CCC1=C(OC(=O)N(CC)CC)N2C(=O)OC(=NCC3CC3)[C@]2(C)[C@H]2C1=CC[C@H]1C(=O)N(C)C(=O)[C@H]12 was tested, and the “hERG current change (%, negative = inhibition) at 1uM” value was 13.4%.
Cn1c(CNC(=O)c2ccccc2)nnc1SCC(=O)Nc1nccs1 was tested, and the “hERG current change (%, negative = inhibition) at 1uM” value was 13.3%.

From publication PMC4336329 (PLoS ONE, 2015)
